For 23 compounds, percent labeling results are on record in PubChem BioAssay AID2202238 (Ras Initiative Chemistry Research Team, Frederick National …, 2025).

In this assay the target is GTPase KRas (Homo sapiens) (UniProt P01116). Put plainly: Covalent labelling of cysteine mutants by fragments, read by mass spectrometry (AID 2202238). More on the design: protein at 5 µM with 500 µM competing thiol for 1.5 h. Conditions: KRAS G12D cysteine mutants, disulfide tethering, MALDI-TOF labeling, stronger effect = higher value, fragment at 500 µM.
UniProt P01116, sequence (P01116 whole entry, looked up, the tested form may be a part): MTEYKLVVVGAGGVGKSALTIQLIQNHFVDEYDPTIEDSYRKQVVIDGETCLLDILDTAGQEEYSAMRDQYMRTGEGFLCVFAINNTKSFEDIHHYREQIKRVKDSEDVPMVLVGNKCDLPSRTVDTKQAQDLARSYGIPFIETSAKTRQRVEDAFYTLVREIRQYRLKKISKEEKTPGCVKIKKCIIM
Setting [1] is: measured here: G75C mutant labeling.
Where [2] appears, read: measured here: H94C mutant labeling.
Setting [3] is: measured here: I36C mutant labeling.
The mark [4] stands for this setting: measured here: L120C mutant labeling.
Setting [5] is: measured here: M67C mutant labeling.
[6] abbreviates: measured here: M72C mutant labeling.
Where [7] appears, read: measured here: N86C mutant labeling.
[8] abbreviates: measured here: P121C mutant labeling.
[9] abbreviates: measured here: S122C mutant labeling.
Where [10] appears, read: measured here: S136C mutant labeling.
The mark [11] stands for this setting: measured here: G60C mutant labeling.
The mark [12] stands for this setting: measured here: N26C mutant labeling.

This is one part of the list. Further columns of the screen follow, without active or inactive calls.

With `Cc1cc(C)n(C)c(=O)c1CNC(=O)CCS`, the percent labeling is, setting by setting: under setting [1], 9.7%; under setting [2], 26.9%; under setting [3], 34.1%; under setting [4], 32.2%; under setting [5], 33.2%; under setting [6], 17.2%. The same compound returned a percent labeling under setting [7] of 21.2%, a percent labeling under setting [8] of 36.3%, a percent labeling under setting [9] of 31.3% and a percent labeling under setting [10] of 55.7%.

For `Cc1nc(-c2cnn(C)c2)sc1C(=O)NCCS`, the percent labeling was determined as 31.5% under setting [11]; 23.2% under setting [1]; 32% under setting [2]; 25% under setting [3]; 35.2% under setting [4]; 31.8% under setting [5]. Moreover, the percent labeling by setting is: under setting [6], 54.5%; under setting [12], 54.6%; under setting [7], 28.7%; under setting [8], 24%; under setting [9], 27.6%; under setting [10], 42.3%.

On to `COc1ccccc1N(Cc1nc(C)cs1)C(=O)CCS`, for which the percent labeling amounted to 20.4% under setting [1]; 49.4% under setting [2]; 34% under setting [3]; 32.3% under setting [4]; 44.1% under setting [5]; 39.4% under setting [6]. Also, the percent labeling came out at 26% under setting [7], 30.6% under setting [8], 26% under setting [9] and 67.5% under setting [10].

`CN(C)Cc1ccc(CNC(=O)CCS)s1`: the percent labeling is, setting by setting: under setting [1], 12.2%; under setting [2], 27.7%; under setting [3], 53%; under setting [4], 30.3%; under setting [5], 41.3%; under setting [6], 19.9%. Moreover, the percent labeling is, setting by setting: under setting [7], 15.8%; under setting [8], 28.1%; under setting [9], 29.2%; under setting [10], 48.4%.

With `O=C(CCS)N1CCC(c2ncccc2Cl)CC1`, the percent labeling is, setting by setting: under setting [1], 24.3%; under setting [2], 45.3%; under setting [3], 38.2%; under setting [4], 37.8%; under setting [5], 49.7%; under setting [6], 55.1%. The same compound showed a percent labeling under setting [7] of 33.1%, a percent labeling under setting [8] of 38.7%, a percent labeling under setting [9] of 37.9% and a percent labeling under setting [10] of 64.8%.

`O=C(NCCS)C1CCN(C(=O)c2ccc(-c3ncccn3)cc2)CC1` showed a percent labeling under setting [11] of 33.5%; a percent labeling under setting [1] of 16.5%; a percent labeling under setting [2] of 34.7%; a percent labeling under setting [3] of 20.7%; a percent labeling under setting [4] of 28.2%; a percent labeling under setting [5] of 29.3%. Also, the percent labeling was determined as 29.6% under setting [6]; 41.6% under setting [12]; 22.4% under setting [7]; 27.3% under setting [8]; 33.3% under setting [9]; 35.8% under setting [10].

As for `COCc1nc(CNC(=O)CCS)c(-c2ccccc2)s1`, the percent labeling is 14.6% under setting [1]; 36% under setting [2]; 32.8% under setting [3]; 27.2% under setting [4]; 36.1% under setting [5]; 36% under setting [6]. Further, the percent labeling under setting [7] is 25.9%, the percent labeling under setting [8] stood at 30.8%, the percent labeling under setting [9] is 21.6% and the percent labeling under setting [10] worked out at 56.3%.

As for `CCc1cccc2c(F)c(C(=O)NCCS)[nH]c12`, the percent labeling by setting is: under setting [11], 12.6%; under setting [1], 12.1%; under setting [2], 8.9%; under setting [3], 6.6%; under setting [4], 14%; under setting [5], 8%. Moreover, the percent labeling was determined as 30.2% under setting [6]; 19.9% under setting [12]; 10.1% under setting [7]; 9.8% under setting [8]; 10% under setting [9]; 15.7% under setting [10].

Take `Cc1c(C(=O)NCCS)cnc2c1c(=O)n(C)c(=O)n2C`: the percent labeling under setting [11] was 51.3%; the percent labeling under setting [1] worked out at 25.9%; the percent labeling under setting [2] was determined as 37.1%; the percent labeling under setting [3] was found to be 35.6%; the percent labeling under setting [4] amounted to 34.8%; the percent labeling under setting [5] is 48.7%. The percent labeling was 74.4% under setting [6]; 58.5% under setting [12]; 29.7% under setting [7]; 33.9% under setting [8]; 29.9% under setting [9]; 49.4% under setting [10].

`O=C(CCS)Nc1cnn(CC(=O)NC2CC2)c1` showed a percent labeling under setting [1] of 17.4%; a percent labeling under setting [2] of 26.5%; a percent labeling under setting [3] of 37%; a percent labeling under setting [4] of 26.8%; a percent labeling under setting [5] of 32%; a percent labeling under setting [6] of 24.9%. The percent labeling is 31.7% under setting [7], 30.8% under setting [8], 39.4% under setting [9] and 45.2% under setting [10].

As for `O=C(CCS)NCC(=O)Nc1ccccc1Br`, the percent labeling by setting is: under setting [1], 13.8%; under setting [2], 31.5%; under setting [3], 34%; under setting [4], 39.4%; under setting [5], 39.5%; under setting [6], 39%. For the same compound, the percent labeling is, setting by setting: under setting [7], 29.2%; under setting [8], 30.8%; under setting [9], 31.7%; under setting [10], 43.2%.

With `CN1CCN(C2(C(=O)NCCS)CCCC2)CC1`, the percent labeling is 38.4% under setting [11]; 15.5% under setting [1]; 41.5% under setting [2]; 35.5% under setting [3]; 29.5% under setting [4]; 42.3% under setting [5]. For the same compound, the percent labeling runs as follows: under setting [6], 22.2%; under setting [12], 37.4%; under setting [7], 32.3%; under setting [8], 33.8%; under setting [9], 31.9%; under setting [10], 53.1%.

As for `O=C(CCS)Nc1ccc(-c2nnc3n2CCCCC3)cc1`, the percent labeling is 17% under setting [1]; 27.2% under setting [2]; 28.1% under setting [3]; 28.1% under setting [4]; 29.8% under setting [5]; 37.5% under setting [6]. Further, the percent labeling was determined as 21.8% under setting [7], 26.1% under setting [8], 25.2% under setting [9] and 37.9% under setting [10].

Regarding `COc1ccc(OC)c(C2CC2C(=O)NCCS)c1` (configuration not stated), the percent labeling reads like this: under setting [11], 30.4%; under setting [1], 19.1%; under setting [2], 23.2%; under setting [3], 20.3%; under setting [4], 31.7%; under setting [5], 20.5%. The percent labeling by setting is: under setting [6], 31.5%; under setting [12], 39.2%; under setting [7], 19.2%; under setting [8], 24.5%; under setting [9], 23.3%; under setting [10], 51.4%.

Regarding `O=C(NCCS)C1(Cc2cn[nH]n2)CCCC1`, the percent labeling by setting is: under setting [11], 35.6%; under setting [1], 12.6%; under setting [2], 30.3%; under setting [3], 22.5%; under setting [4], 30.4%; under setting [5], 25.7%. Moreover, the percent labeling was determined as 20.7% under setting [6]; 40.3% under setting [12]; 34.1% under setting [7]; 31.7% under setting [8]; 30% under setting [9]; 41.3% under setting [10].

`CC(C)c1cc(C(=O)NCCS)c(C(C)C)[nH]1` showed a percent labeling under setting [11] of 10.7%; a percent labeling under setting [1] of 6.1%; a percent labeling under setting [2] of 12.4%; a percent labeling under setting [3] of 7.6%; a percent labeling under setting [4] of 19.5%; a percent labeling under setting [5] of 11.6%. Also, the percent labeling reads like this: under setting [6], 7.7%; under setting [12], 16%; under setting [7], 6.3%; under setting [8], 11%; under setting [9], 8.9%; under setting [10], 18.8%.

With `CCn1nccc1C1CCN(C(=O)CCS)CC1`, the percent labeling runs as follows: under setting [1], 15.7%; under setting [2], 33.5%; under setting [3], 34.7%; under setting [4], 36.2%; under setting [5], 41.3%; under setting [6], 24.2%. The percent labeling amounted to 14.5% under setting [7], 34.5% under setting [8], 35.2% under setting [9] and 60.3% under setting [10].

On to `O=C1CN(S(=O)(=O)c2cccc(NC(=O)CCS)c2)CCN1`, for which the percent labeling was 24.7% under setting [1]; 35.8% under setting [2]; 39.8% under setting [3]; 32.8% under setting [4]; 31.4% under setting [5]; 41.8% under setting [6]. For the same compound, the percent labeling runs as follows: under setting [7], 66.9%; under setting [8], 27.1%; under setting [9], 43.2%; under setting [10], 47.8%.

On to `O=C(NCCS)C(c1ccccc1)n1cnc2ccccc21` (configuration not stated), for which the percent labeling was found to be 28.1% under setting [11]; 5.1% under setting [1]; 16.2% under setting [2]; 17.4% under setting [3]; 18.2% under setting [4]; 23.7% under setting [5]. Further, the percent labeling stood at 17.9% under setting [6]; 28.6% under setting [12]; 8.6% under setting [7]; 14.8% under setting [8]; 14.2% under setting [9]; 40.1% under setting [10].

In the case of `NC(=O)c1ccccc1OCc1cccc(C(=O)NCCS)c1`, the percent labeling runs as follows: under setting [11], 23.5%; under setting [1], 11.7%; under setting [2], 19%; under setting [3], 14.6%; under setting [4], 17.8%; under setting [5], 14.8%. For the same compound, the percent labeling came to 60.8% under setting [6]; 33.4% under setting [12]; 10.5% under setting [7]; 10.5% under setting [8]; 8.9% under setting [9]; 19.6% under setting [10].

As for `CN(Cc1coc2cc(F)cc(F)c12)C(=O)CCS`, the percent labeling is, setting by setting: under setting [1], 35%; under setting [2], 35.4%; under setting [3], 32%; under setting [4], 21.6%; under setting [5], 34.4%; under setting [6], 47.2%. Further, the percent labeling worked out at 23.4% under setting [7], 27.1% under setting [8], 21.8% under setting [9] and 43.1% under setting [10].

With `CN1C(=O)CC(C(=O)NCCS)c2ccccc21` (configuration not stated), the percent labeling by setting is: under setting [11], 37.9%; under setting [1], 13.9%; under setting [2], 29.9%; under setting [3], 27.2%; under setting [4], 44.8%; under setting [5], 32.4%. Also, the percent labeling reads like this: under setting [6], 25.4%; under setting [12], 35.2%; under setting [7], 20.6%; under setting [8], 30.4%; under setting [9], 31.9%; under setting [10], 57.2%.

As for `O=C(CCS)N1CCC(n2cccn2)CC1`, the percent labeling stood at 12.8% under setting [1]; 27.6% under setting [2]; 32.6% under setting [3]; 28.4% under setting [4]; 31.3% under setting [5]; 19.1% under setting [6]. Moreover, the percent labeling was 22.4% under setting [7], 35.9% under setting [8], 36.4% under setting [9] and 52.8% under setting [10].
